Data from patent publication US20110286916A1 (published 2011).

Assays:
[1] = target: T1, Notch1 extracellular fragment (amino acid 19-526) Fc fusion protein, R&D Systems 3647-TK (human, UniProt P46531 19-526); assay: BIAcore SPR, Notch1/Fc on CM5, Mab analyte, 1:1 binding
T1 construct: bought protein; also called Notch1/Fc; Notch1-ECD Fc fusion protein; not shown: Fc of the bought fusion protein
Protocol: All experiments were performed at 25° C. at a flow rate of 40 μl/min. […] FC1 was used as the reference cell. Specific signals were the results of differences of signals obtained on FC2 versus FC1. […] The dissociation phase of the analyte was monitored over a period of time ranging 10-30 minutes. Running buffer was also injected under the same conditions as a reference.
Equilibrium dissociation constant (KD) was calculated by the ratio between dissociation (koff) and association (kon) rate constants.

[2] = target: T1, Notch1 extracellular fragment (amino …); assay: titration ELISA, antigen coated, purified IgG1
Protocol: Plates were blocked with 300 ul of milk blocker per well and incubated for 2 hour at RT. […] After washing plates with PBS or TBS buffer, anti-human lambda light chain antibody with HRP was used for detection antibody and absorbance at 450 nm was read with a plate reader.

[3] = target: T2, human full-length Notch1 with C-terminal FLAG tag, stably expressed on 293 FlpIn (TREx) cells (human, UniProt P46531 19-2555); assay: FACS, hN1 293 cells, MFI grade (++ 101-500)
T2 construct: tetracycline/doxycycline-induced expression from pcDNA5/FRT/TO-HN1+FLAG; also called hN1; 293_N1
Protocol: Notch 293 FlpIn (TREx) cells were treated with dox (2 ug/ml) for two days to induce Notch expression before collecting them for FACS surface expression analysis. The cells were harvested from tissue culture flasks using Trypsin for 15 min, centrifuged at 1200 rpm for 10 minutes and resuspended in 2 ml PBS with 2% fetal bovine serum (2% FBS/PBS). The cells were counted, adjusted to 10⁷ cells/ml and 0.1 ml of cells was incubated with 1 ug of each Mab for 40 minutes at 4° C. The cells were washed, resuspended in 0.1 ml 2% FBS/PBS and incubated with 1 ug R-PE-conjugated goat anti-human Ig (Jackson ImmunoResearch) for 30 minutes at 4° C. Cells were washed, resuspended in 0.3 ml PBS with 10% formaldehyde and analyzed on a FACSCalibur (Becton Dickinson, Mt View, Calif.).

[4] = target: human Notch3-Gal4 chimeric receptor on U2OS FlpIn TREx cells (human, UniProt Q9UM47 40-2321); assay: cell-based or functional assay

Kd [1]: 1.66 nM
koff [1]: 0.00026 s⁻¹
kon [1]: 157000 M⁻¹ s⁻¹
EC50 [2]: 0.17 nM
MFI [3]: 101 to 500 mfi
hN3, inhibition of Luc activity at [166 nM] Mab [4]: < 10%
B1: WC-133 (antibody, human IgG1, lambda, V domains shown)
VH: [about 100 residues not spelt out]DSFDYWGQGTLVTVSS
VL: SYELTQPPSASGTPGQRVTISCSGSNSNIGSNTLNWYQQLPGTAPKLLIYSNNQRPSWVPDRFSGSKSGTSASLAISGLQSEDEADYYCAAWDDSLNGLIFGGGTKLTVLQ
notes: also called N1wc133; Hn1WC-133
